In the supplement of paper PMC3334620:
In all, about 33,000 sequences were measured (“E-score (-0.5 to 0.5)”: median about -0.04, highest 2% from about 0.36 on). Some of the results follow.

biological target: T1, Hmlalpha2 (UniProt P0CY09); experiment: PBM E-score (8-mer binding enrichment) (E-score (-0.5 to 0.5)); higher = stronger / more preferred TF binding; most listed sequences are background and not binding sites; conditions: protein concentration: 200 nM; construct: GST-full length
T1 sequence: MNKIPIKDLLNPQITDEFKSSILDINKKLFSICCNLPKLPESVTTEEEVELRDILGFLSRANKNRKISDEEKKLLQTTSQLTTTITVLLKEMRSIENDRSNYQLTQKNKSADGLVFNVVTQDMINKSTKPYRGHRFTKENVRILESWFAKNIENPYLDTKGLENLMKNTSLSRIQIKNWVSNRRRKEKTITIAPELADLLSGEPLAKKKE
Procedure, shortened: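 Full-length yeast transcription factors or their DNA-binding domains, GST-tagged and expressed with PURExpress, were applied at about 100-200 nM to universal all-10-mer Agilent arrays. These arrays had been made double-stranded by primer extension on fresh or once-stripped slides. Detection used fluorescent anti-GST, normalisation used masliner, and E-scores for ungapped eight-base words pooled with reverse complements came from the Universal PBM Analysis Suite.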

| Sequence | PBM E-score |
| --- | --- |
| AGGCTACG | -0.0627 |
| ATGGATCA | -0.123 |
| AAGCCTGG | -0.168 |
| CCTGTGGC | -0.193 |
| CAAATCCC | -0.318 |
| CTGTCCGA | -0.0331 |
| CATATCCA | -0.108 |
| AACAGGCT | 0.109 |
| CACAAGAC | -0.102 |
| AAGAGTAT | 0.0109 |
| AGCACAGC | 0.0215 |
| TTGGCCAA | -0.236 |
| AGGCCGAC | -0.413 |
| GCGCTAGA | -0.0843 |
| TAACTCTA | -0.104 |
| CAGAACAC | 0.141 |
| AAGGTTCA | -0.0691 |
| TGGCTTAA | 0.146 |
| TCGCTAGA | -0.205 |
| ATTGCCAG | -0.159 |
| AATACCAC | -0.0268 |
| AAATTTTG | -0.0314 |
| AATTTCGG | -0.154 |
| ACTGTCCT | -0.156 |
| AAGTCAGC | 0.0573 |

| Sequence | PBM E-score |
| --- | --- |
| AGCACTGC | -0.17 |
| GGTACCAC | -0.216 |
| AGACTCGA | -0.211 |
| ATTTGGCG | -0.0112 |
| CTCGGCTA | -0.182 |
| CTCTGGAC | -0.0396 |
| GCATAAGA | -0.109 |
| ATAGTACC | -0.13 |
| CTGGTACC | -0.134 |
| TTCGCCAA | -0.154 |
| CATCGGCG | -0.266 |
| ACAGTGAC | -0.021 |
| ATGCGGAC | -0.145 |
| CGTCAATA | -0.0292 |
| GCTTCTCC | -0.326 |
| ACTCTGCG | -0.0577 |
| CCGCCACC | -0.208 |
| ATAGCGCG | 0.0323 |
| ACACTCTG | 0.11 |
| TAGCCCAA | -0.0672 |
| GTGCACAC | -0.153 |
| CAACAAAC | 0.215 |
| CTAATCCA | -0.235 |
| CAGAACCG | 0.113 |
| GAACTATC | -0.209 |

| Sequence | PBM E-score |
| --- | --- |
| CGGGCTTA | -0.124 |
| ACCTCATC | -0.0561 |
| CGGACCCG | -0.24 |
| GCTGCACC | -0.393 |
| CGCATTAC | 0.214 |
| ATCTCATA | -0.0685 |
| AGAGCTTA | -0.0481 |
| CTACCATC | -0.205 |
| GAGGCCGC | -0.174 |
| AACTGTAA | 0.227 |
| CCCGGAAC | -0.156 |
| CGTTCGGC | -0.217 |
| CGTAACTA | 0.149 |
| AAAAGAGC | -0.0178 |
| AGTATATC | 0.0765 |
| CGGTTTTC | -0.038 |
| ATCGACAT | 0.31 |
| ATGTAGGA | 0.236 |
| GAAGGCGA | -0.325 |
| ATCATACC | 0.138 |
| GGATCCGA | -0.303 |
| GGCTACCC | -0.274 |
| GACATGTC | 0.327 |
| GTTATGCA | 0.00491 |
| AAAAAACA | 0.244 |

| Sequence | PBM E-score |
| --- | --- |
| ACCCGGAC | -0.171 |
| ATTATCTA | 0.277 |
| AAGAAACG | 0.109 |
| CCTGAGAA | 0.043 |
| TCAGTCGA | -0.0399 |
| ATATACTA | 0.1 |
| AGTTGTTG | -0.00626 |
| CCTGCCTA | -0.15 |
| CAGAGCGG | -0.218 |
| CCCGTGTA | 0.451 |
| CCACGGAC | -0.301 |
| CGAGCCAA | 0.0319 |
| AGCGAGCA | -0.0888 |
| GTCGCCTA | -0.103 |
| AGGTATTC | 0.139 |
| ACGCGGGC | 0.198 |
| AATACGCA | 0.385 |
| CTCGCTCC | -0.103 |
| AAATCAAC | 0.104 |
| ACACCAGG | -0.102 |
| CGATAATC | -0.134 |
| ACGTCACC | -0.0136 |
| GTGGGACA | -0.0285 |
| CAAGTCCC | -0.195 |
| CACTGAAA | 0.0809 |

| Sequence | PBM E-score |
| --- | --- |
| GACCGTAC | -0.136 |
| ATCCTATA | 0.0747 |
| ATGTCCAC | 0.0727 |
| AGTCGCTA | 0.0556 |
| CATAGCCA | -0.0704 |
| CTAGGCCC | -0.281 |
| AGCGGGTG | 0.00691 |
| ATATTATC | 0.0773 |
| ACCTTCAC | 0.0215 |
| GCAAGGGA | -0.164 |
| GATTACAC | 0.483 |
| ATAGCACC | -0.115 |
| CGCCATAG | -0.163 |
| ATGTAAAG | 0.473 |
| AGGTCTTA | 0.00867 |
| CAGAGTCG | -0.251 |
| CAGCATAG | 0.0319 |
| ACGCAATG | 0.249 |
| CGGCCATA | -0.208 |
| CACGGTGA | 0.155 |
| CTCGGCGC | -0.0543 |
| GAGACCTC | -0.154 |
| ACACACGC | 0.288 |
| AACCGTGA | -0.0751 |
| AACAGCAA | 0.116 |

| Sequence | PBM E-score |
| --- | --- |
| ACCTCGCA | 0.0111 |
| CGCCAAGC | -0.127 |
| AGTACGCA | 0.0995 |
| AAGAGACG | -0.125 |
| CAGACTAA | -0.0197 |
| ACCAATAT | 0.0365 |
| ATGTACCG | 0.112 |
| AAGGAGTG | -0.0512 |
| CGGCTCTA | -0.0712 |
| CTCAGAAA | 0.0713 |
| ACTTGTTG | 0.143 |
| CTTACCCC | -0.307 |
| ACTTCTGC | -0.00836 |
| CATGACGC | 0.228 |
| ATTATGGG | -0.127 |
| CAAGACCA | -0.0761 |
| AAGGAGGC | -0.247 |
| ATAGAATA | 0.146 |
| GTCTGCTA | 0.00028 |
| CCCCCTCG | -0.316 |
| AGAGATAC | 0.0207 |
| AGAGCAAA | -0.138 |
| CCAAGAGG | -0.239 |
| AGGGTGTC | -0.163 |
| CAGGAGAG | -0.144 |

| Sequence | PBM E-score |
| --- | --- |
| AAGATATA | 0.186 |
| CCTGTGTA | 0.43 |
| CTGCAACA | 0.0745 |
| ATCTATCA | -0.0143 |
| AATACTAT | 0.0435 |
| ACCCGTAA | 0.0605 |
| CGCGGGGA | 0.00824 |
| CCCTCGAC | -0.183 |
| GTACGTAC | 0.17 |
| GTCATTCA | -0.0332 |
| GCAAAACA | 0.135 |
| ATGACAAG | 0.15 |
| GAGCCTTA | -0.14 |
| GACTTGGC | -0.347 |
| CGTCGGCC | -0.146 |
| ACTTATAG | -0.0672 |
| AAGCGAGT | 0.169 |
| ATTAAAAG | 0.00813 |
| ATAAAGAC | 0.0149 |
| ATCCGCTC | -0.247 |
| ATCGCCAT | -0.127 |
| GTCGCGTA | 0.414 |
